Measured values taken from the supplement of paper PMC4967469.

Key:
Test in all cases: Viability of human cancer cell lines after 72 h of drug (GDSC screen)
[1] = compound: CC(=O)O[C@@]12CO[C@@H]1C[C@H](O)[C@@]1(C)C(=O)[C@H](O)C3=C(C)[C@@H](OC(=O)[C@H](O)[C@@H](NC(=O)OC(C)(C)C)c4ccccc4)C[C@@](O)([C@@H](OC(=O)c4ccccc4)[C@H]21)C3(C)C [Docetaxel]; conditions: top dose 0.0125 µM
Procedure: (§1)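 Human cancer cell lines in 384-well plates, medium with 10% serum, drug for 72 h over a 256-fold dose range (nine 2-fold or five 4-fold steps up to the top dose). Adherent lines were fixed and stained with the nucleic acid dye Syto60, suspension lines read with resazurin; signal relative to control wells, capped at 0 and 100%. One two-parameter sigmoid per drug and line, fitted in a mixed model over all curves with the slope shared within a line.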

[2] = compound: COCC[n+]1c2c(n(Cc3cnccn3)c1C)C(=O)c1ccccc1C2=O [YM155]; conditions: top dose 5.12 µM
Procedure: as §1

[3] = compound: C[C@]1(O)C[C@@H](c2nc(-c3ccc4ccc(-c5ccccc5)nc4c3)c3c(N)nccn32)C1 [OSI-906]; conditions: top dose 2.56 µM; top dose inferred
Procedure: as §1

[4] = compound: CCOc1nc(NC(=O)Cc2cc(OC)ccc2OC)cc(N)c1C#N [JNK Inhibitor VIII]; conditions: top dose 10 µM; top dose inferred
Procedure: as §1

[5] = compound: CC1(C)CNc2cc(NC(=O)c3cccnc3NCc3ccncc3)ccc21 [AMG-706]; conditions: top dose 2 µM; top dose inferred
Procedure: as §1

[6] = compound: Cc1ccc(C(=O)N(CCCN)[C@@H](c2nc3cc(Cl)ccc3c(=O)n2Cc2ccccc2)C(C)C)cc1 [SB-715992]; conditions: top dose 0.128 µM; top dose inferred
Procedure: as §1

[7] = compound: COC(=O)[C@H](CCSC)NC(=O)c1ccc(NC[C@@H](N)CS)cc1-c1ccccc1 [FTI-277]; conditions: top dose 1.024 µM; top dose inferred
Procedure: as §1

[8] = compound: CN1CCN(c2ccc([N+](=O)[O-])c3no[n+]([O-])c23)CC1 [NSC-207895]; conditions: top dose 20 µM; top dose inferred
Procedure: as §1

[9] = compound: CC1=C2C[C@H]3[C@@H](CC=C4C[C@@H](O)CC[C@@]43C)[C@@H]2CC[C@]12O[C@@H]1C[C@H](C)CN[C@H]1[C@H]2C [Cyclopamine]; conditions: top dose 16 µM; top dose inferred
Procedure: as §1

[10] = compound: OCCCNc1cc(-c2ccnc(Nc3cccc(Cl)c3)n2)ccn1 [CGP-60474]; conditions: top dose 0.256 µM; top dose inferred
Procedure: as §1

[11] = compound: Cc1sc2c(c1C)C(c1ccc(Cl)cc1)=N[C@@H](CC(=O)OC(C)(C)C)c1nnc(C)n1-2 [JQ1]
Procedure: as §1

[12] = compound: c1ccc2c(CCNc3ccc(Nc4ccncc4)cc3)c[nH]c2c1 [JNJ-26854165]; conditions: top dose 10 µM
Procedure: as §1

[13] = compound: O=C(/C=C/c1cccc(S(=O)(=O)Nc2ccccc2)c1)NO [Belinostat]; conditions: top dose 20 µM; top dose inferred
Procedure: as §1

[14] = top dose 1 µM, screen: GDSC drug entry 1218, top dose inferred
[15] = top dose 2.56 µM, screen: GDSC drug entry 163

TE-9 (oesophagus, adherent) was tested, and the AUC [1] was 0.533, the IC50 [1] was 0.963 nM and the AUC [2] was 0.866. For the same cell line, the IC50 [2] was 4900 nM, the AUC [3] was 0.971 and the IC50 [3] was over 2560 nM. For the same cell line, the AUC [4] was 0.976, the IC50 [4] was over 10000 nM and the AUC [5] was 0.986. The IC50 [5] was over 2000 nM, the AUC [6] was 0.987 and the IC50 [6] was over 128 nM. For the same cell line, the AUC [7] was 0.943, the IC50 [7] was over 1020 nM and the AUC [8] was 0.983. The IC50 [8] was over 20000 nM, the AUC [9] was 0.951 and the IC50 [9] was over 16000 nM. It also gave an AUC [10] of 0.778, an IC50 [10] of 108 nM and an AUC [11, 14] of 0.986. It also gave an IC50 [11, 14] of over 1000 nM, an AUC [11, 15] of 0.855 and an IC50 [11, 15] of 2160 nM. The AUC [12] was 0.852, the IC50 [12] was 8200 nM and the AUC [13] was 0.987. The IC50 [13] was over 20000 nM.
TGBC1TKB (biliary tract, adherent) gave an AUC [1] of 0.83, an IC50 [1] of 7.8 nM and an AUC [2] of 0.03. It also gave an IC50 [2] of under 20 nM, an AUC [3] of 0.977 and an IC50 [3] of over 2560 nM. It also gave an AUC [4] of 0.979, an IC50 [4] of over 10000 nM and an AUC [5] of 0.976. For the same cell line, the IC50 [5] was over 2000 nM, the AUC [6] was 0.985 and the IC50 [6] was over 128 nM. The AUC [7] was 0.984, the IC50 [7] was over 1020 nM and the AUC [8] was 0.759. It also gave an IC50 [8] of 6930 nM, an AUC [9] of 0.983 and an IC50 [9] of over 16000 nM. The AUC [10] was 0.575, the IC50 [10] was 25.6 nM and the AUC [11, 14] was 0.988. For the same cell line, the IC50 [11, 14] was over 1000 nM, the AUC [11, 15] was 0.902 and the IC50 [11, 15] was over 2560 nM. It also gave an AUC [12] of 0.944, an IC50 [12] of over 10000 nM and an AUC [13] of 0.511. For the same cell line, the IC50 [13] was 1340 nM.
TGW (neuroblastoma, adherent) showed an AUC [1] of 0.964, an IC50 [1] of over 12.5 nM and an AUC [2] of 0.18. It also gave an IC50 [2] of 42.4 nM, an AUC [3] of 0.881 and an IC50 [3] of 2030 nM. It also gave an AUC [4] of 0.99, an IC50 [4] of over 10000 nM and an AUC [5] of 0.989. The IC50 [5] was over 2000 nM, the AUC [6] was 0.672 and the IC50 [6] was 22.3 nM. It also gave an AUC [7] of 0.991, an IC50 [7] of over 1020 nM and an AUC [8] of 0.883. It also gave an IC50 [8] of 16200 nM, an AUC [9] of 0.989 and an IC50 [9] of over 16000 nM. The AUC [10] was 0.757, the AUC [11, 14] was 0.981 and the IC50 [11, 14] was over 1000 nM. The AUC [11, 15] was 0.833, the IC50 [11, 15] was 1330 nM and the AUC [12] was 0.931. The IC50 [12] was over 10000 nM, the AUC [13] was 0.202 and the IC50 [13] was 195 nM.
U-698-M (B-cell leukaemia, suspension) gave an AUC [1] of 0.819, an IC50 [1] of 7.14 nM and an AUC [2] of 0.104. For the same cell line, the IC50 [2] was under 20 nM, the AUC [3] was 0.965 and the IC50 [3] was over 2560 nM. It also gave an AUC [4] of 0.987, an IC50 [4] of over 10000 nM and an AUC [5] of 0.985. It also gave an IC50 [5] of over 2000 nM, an AUC [6] of 0.944 and an IC50 [6] of over 128 nM. The AUC [7] was 0.983, the IC50 [7] was over 1020 nM and the AUC [8] was 0.985. For the same cell line, the IC50 [8] was over 20000 nM, the AUC [9] was 0.96 and the IC50 [9] was over 16000 nM. For the same cell line, the AUC [10] was 0.933, the IC50 [10] was over 256 nM and the AUC [11, 14] was 0.982. The IC50 [11, 14] was over 1000 nM, the AUC [11, 15] was 0.942 and the IC50 [11, 15] was over 2560 nM. It also gave an AUC [12] of 0.87, an IC50 [12] of 9330 nM and an AUC [13] of 0.546. The IC50 [13] was 1660 nM.
UACC-257 (melanoma, adherent) was tested, and the AUC [1] was 0.856, the IC50 [1] was over 12.5 nM and the AUC [2] was 0.037. For the same cell line, the IC50 [2] was under 20 nM, the AUC [3] was 0.97 and the IC50 [3] was over 2560 nM. It also gave an AUC [4] of 0.967, an IC50 [4] of over 10000 nM and an AUC [5] of 0.968. For the same cell line, the IC50 [5] was over 2000 nM, the AUC [6] was 0.947 and the IC50 [6] was over 128 nM. It also gave an AUC [7] of 0.944, an IC50 [7] of over 1020 nM and an AUC [8] of 0.793. For the same cell line, the IC50 [8] was 11800 nM, the AUC [9] was 0.977 and the IC50 [9] was over 16000 nM. For the same cell line, the AUC [10] was 0.85, the IC50 [10] was over 256 nM and the AUC [11, 14] was 0.962. For the same cell line, the IC50 [11, 14] was over 1000 nM, the AUC [11, 15] was 0.807 and the IC50 [11, 15] was 1720 nM. For the same cell line, the AUC [12] was 0.808, the IC50 [12] was 6760 nM and the AUC [13] was 0.448. The IC50 [13] was 868 nM.
Cell Line WIL2-NS (lymphoid neoplasm, suspension) has an AUC [1] of 0.933, an IC50 [1] of over 12.5 nM and an AUC [2] of 0.014. The IC50 [2] was under 20 nM, the AUC [3] was 0.992 and the IC50 [3] was over 2560 nM. The AUC [4] was 0.992, the IC50 [4] was over 10000 nM and the AUC [5] was 0.992. For the same cell line, the IC50 [5] was over 2000 nM, the AUC [6] was 0.62 and the IC50 [6] was 16 nM. It also gave an AUC [7] of 0.992, an IC50 [7] of over 1020 nM and an AUC [8] of 0.929. For the same cell line, the IC50 [8] was over 20000 nM, the AUC [9] was 0.805 and the IC50 [9] was 6350 nM. It also gave an AUC [10] of 0.682, an IC50 [10] of 46.2 nM and an AUC [11, 14] of 0.985. For the same cell line, the IC50 [11, 14] was over 1000 nM, the AUC [11, 15] was 0.553 and the IC50 [11, 15] was 217 nM. The AUC [12] was 0.984, the IC50 [12] was over 10000 nM and the AUC [13] was 0.033. The IC50 [13] was under 78.1 nM.
WSU-DLCL2 (B-cell lymphoma, suspension) was tested, and the AUC [1] was 0.793, the IC50 [1] was 4.67 nM and the AUC [2] was 0.253. For the same cell line, the IC50 [2] was 73.3 nM, the AUC [3] was 0.992 and the IC50 [3] was over 2560 nM. The AUC [4] was 0.989, the IC50 [4] was over 10000 nM and the AUC [5] was 0.993. It also gave an IC50 [5] of over 2000 nM, an AUC [6] of 0.848 and an IC50 [6] of 71.7 nM. It also gave an AUC [7] of 0.992, an IC50 [7] of over 1020 nM and an AUC [8] of 0.993. The IC50 [8] was over 20000 nM, the AUC [9] was 0.993 and the IC50 [9] was over 16000 nM. It also gave an AUC [10] of 0.898, an IC50 [10] of 225 nM and an AUC [11, 14] of 0.752. It also gave an IC50 [11, 14] of 283 nM, an AUC [11, 15] of 0.992 and an IC50 [11, 15] of over 2560 nM. The AUC [12] was 0.95, the IC50 [12] was over 10000 nM and the AUC [13] was 0.725. It also gave an IC50 [13] of 4770 nM.
Cell Line YT (lymphoid neoplasm, suspension) has an AUC [1] of 0.979, an IC50 [1] of over 12.5 nM and an AUC [2] of 0.038. The IC50 [2] was under 20 nM, the AUC [3] was 0.982 and the IC50 [3] was over 2560 nM. The AUC [4] was 0.965, the IC50 [4] was over 10000 nM and the AUC [5] was 0.969. For the same cell line, the IC50 [5] was over 2000 nM, the AUC [6] was 0.958 and the IC50 [6] was over 128 nM. The AUC [7] was 0.944, the IC50 [7] was over 1020 nM and the AUC [8] was 0.809. It also gave an IC50 [8] of 8590 nM, an AUC [9] of 0.992 and an IC50 [9] of over 16000 nM. The AUC [10] was 0.976, the IC50 [10] was over 256 nM and the AUC [11, 14] was 0.991. For the same cell line, the IC50 [11, 14] was over 1000 nM, the AUC [11, 15] was 0.551 and the IC50 [11, 15] was 215 nM. It also gave an AUC [12] of 0.948, an IC50 [12] of over 10000 nM and an AUC [13] of 0.095. It also gave an IC50 [13] of 78.6 nM.

The IC50 comes from the fitted curve, where viability falls to half of the control; fits outside the tested doses are given as limits. AUC is the area under the same curve over the 256-fold range up to the top dose, as a fraction: 1 means no effect, lower means more sensitive. For some of these results: An inferred top dose comes from the curve model; the source does not state it. For some of these results: An entry number marks a drug with two screens in the source, which often give different values.
